This is an account of results in the supplement of paper PMC4604168 (melanoma cell lines).

Some of the results follow. Many values rest on one well or one pass, so single values are uncertain.
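Also: cells treated in 1,536-well plates, then fixed and DAPI-stained, with nuclei counted from automated high-throughput microscope images.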

This assay concerns SkMel5. Nature of the assay: cell count relative to DMSO control; melanoma cells; higher = more viable cells. As to conditions: library dose: standard library concentration; 72 h.
Consider `O=c1[nH]nc(Sc2ncc([N+](=O)[O-])s2)n1-c1ccc2c(c1)OCCO2` + O=S(=O)(c1ccccc1)N(CC(F)(F)F)c1ccc(C(O)(C(F)(F)F)C(F)(F)F)cc1 [T0901317] (first compound 1 µM, partner dose 7 µM), for which the cell count stood at 64.1%.
Next, `COc1cc(Nc2ncc(F)c(Nc3ccc4c(n3)NC(=O)C(C)(C)O4)n2)cc(OC)c1OC` [Tamatinib] + O=c1cc(-c2cccc3c2Sc2ccccc2S3)oc(N2CCOCC2)c1 [KU55933] (first compound 2 µM, partner dose 5 µM): 63.4%.
Next, `O=C(O)c1ccc(-c2c[nH]c3ncc(-c4ccccc4)cc23)cc1C1CCCC1` + O=C1NC(=O)/C(=C/c2ccc(-c3ccc(F)cc3O)o2)S1 [AS252424] (first compound 0.8 µM, partner dose 5 µM): 80.5%; `O=c1[nH]nc(Sc2ncc([N+](=O)[O-])s2)n1-c1ccc2c(c1)OCCO2` + CCCCCCCCCCCC1=C(O)C(=O)C=C(O)C1=O [Embelin] (first compound 1 µM, partner dose 6 µM): 91.4%; `O=c1[nH]nc(Sc2ncc([N+](=O)[O-])s2)n1-c1ccc2c(c1)OCCO2` + Oc1cc(-c2nc(-c3ccccc3)[nH]c2-c2ccncc2)ccc1Cl [L779450] (first compound 1 µM, partner dose 1 µM): 67.9%.
On to `O=c1[nH]nc(Sc2ncc([N+](=O)[O-])s2)n1-c1ccc2c(c1)OCCO2` + Oc1nc(-c2ccc(C(F)(F)F)cc2)nc2c1CSCC2 [XAV939] (first compound 1 µM, partner dose 10 µM), for which the cell count was determined as 76.8%.
In turn, `O=c1[nH]nc(Sc2ncc([N+](=O)[O-])s2)n1-c1ccc2c(c1)OCCO2` + COC(=O)c1sccc1S(=O)(=O)Nc1ccc(Nc2ccccc2)cc1OC [GSK0660] (first compound 1 µM, partner dose 5 µM) registered a cell count of 92.5%.
As for `O=C(Nc1cccc(Cl)c1)Nc1ncc(CCNc2ncnc3ccsc23)s1` + COc1ccc2c(c1)CCC1C2CCC2(C)C(NCCCCCCN3C(=O)C=CC3=O)CCC12 [U73122] (first compound 0.004 µM, partner dose 2 µM), the figure is 64.8%.
In turn, `COc1cc(Nc2ncc(F)c(Nc3ccc4c(n3)NC(=O)C(C)(C)O4)n2)cc(OC)c1OC` [Tamatinib] + Oc1cc(-c2nc(-c3ccccc3)[nH]c2-c2ccncc2)ccc1Cl [L779450] (first compound 2 µM, partner dose 1 µM) had a cell count of 44.8%.
As to `O=c1[nH]nc(Sc2ncc([N+](=O)[O-])s2)n1-c1ccc2c(c1)OCCO2` + O=C(Nc1ccccc1)c1cc([N+](=O)[O-])ccc1Cl [GW9662] (first compound 1 µM, partner dose 10 µM), the cell count came out at 65.9%.
Next, `COc1cc(Nc2ncc(F)c(Nc3ccc4c(n3)NC(=O)C(C)(C)O4)n2)cc(OC)c1OC` [Tamatinib] + COc1cc2ncnc(Nc3ccc(Oc4ccccc4)cc3)c2cc1OC [SrcI1] (first compound 2 µM, partner dose 10 µM): 28%.
As for `O=c1[nH]nc(Sc2ncc([N+](=O)[O-])s2)n1-c1ccc2c(c1)OCCO2` + CC(C)CCN1c2nc(Nc3cc(F)c(O)c(F)c3)ncc2N(C)C(=O)C1C [BID1870] (first compound 1 µM, partner dose 1 µM), the figure is 86.4%.
Next, `O=C(O)c1ccc(-c2c[nH]c3ncc(-c4ccccc4)cc23)cc1C1CCCC1` + COC(=O)c1sccc1S(=O)(=O)Nc1ccc(Nc2ccccc2)cc1OC [GSK0660] (first compound 0.8 µM, partner dose 5 µM): 96.4%.
`O=c1[nH]nc(Sc2ncc([N+](=O)[O-])s2)n1-c1ccc2c(c1)OCCO2` + Cn1cc(/C=C2\C(=O)Nc3cccnc32)c2ccccc21 [GW441756] (first compound 1 µM, partner dose 2 µM) registered a cell count of 70.6%.
Next, `O=c1[nH]nc(Sc2ncc([N+](=O)[O-])s2)n1-c1ccc2c(c1)OCCO2` + COc1ccc(-c2ccc3c(N4CCOCC4)nc(N4C[C@@H](C)O[C@@H](C)C4)nc3n2)cc1CO [KU0063794] (first compound 1 µM, partner dose 0.1 µM): 71.7%; `Cn1cncc1[C@@](N)(c1ccc(Cl)cc1)c1ccc2c(c1)c(-c1cccc(Cl)c1)cc(=O)n2C` [tipifarnib] + COc1ccc2c(c1)CCC1C2CCC2(C)C(NCCCCCCN3C(=O)C=CC3=O)CCC12 [U73122] (first compound 0.05 µM, partner dose 2 µM): 74.9%; `O=c1[nH]nc(Sc2ncc([N+](=O)[O-])s2)n1-c1ccc2c(c1)OCCO2` + CCN(CC)CCCCNc1ncc2cc(-c3cc(OC)cc(OC)c3)c(NC(=O)NC(C)(C)C)nc2n1 [PD173074] (first compound 1 µM, partner dose 0.5 µM): 76.8%.
As for `O=c1[nH]nc(Sc2ncc([N+](=O)[O-])s2)n1-c1ccc2c(c1)OCCO2` + COc1cc2ncnc(Nc3ccc(Oc4ccccc4)cc3)c2cc1OC [SrcI1] (first compound 1 µM, partner dose 10 µM), the figure is 63.5%; as for `O=c1[nH]nc(Sc2ncc([N+](=O)[O-])s2)n1-c1ccc2c(c1)OCCO2` + O=C1NC(=O)/C(=C/c2ccc(-c3ccc(F)cc3O)o2)S1 [AS252424] (first compound 1 µM, partner dose 5 µM), 82.3%; as for `O=c1[nH]nc(Sc2ncc([N+](=O)[O-])s2)n1-c1ccc2c(c1)OCCO2` + CCc1ccc(CCOc2ccc(CC3SC(=O)NC3=O)cc2)nc1 [pioglitazone] (first compound 1 µM, partner dose 10 µM), 69.1%.
As for `O=c1[nH]nc(Sc2ncc([N+](=O)[O-])s2)n1-c1ccc2c(c1)OCCO2` + O=C(O)C(=O)Nc1sc2c(c1C(=O)O)CCNC2 [TCS401] (first compound 1 µM, partner dose 8.33333 µM), the figure is 96.7%; as for `O=c1[nH]nc(Sc2ncc([N+](=O)[O-])s2)n1-c1ccc2c(c1)OCCO2` + Nc1cccc2c1CN(C1CCC(=O)NC1=O)C2=O [lenalidomide] (first compound 1 µM, partner dose 5 µM), 78.5%; as for `O=c1[nH]nc(Sc2ncc([N+](=O)[O-])s2)n1-c1ccc2c(c1)OCCO2` + c1cc(-c2cnn3cc(-c4ccc(OCCN5CCCCC5)cc4)cnc23)ccn1 [Dorsomorphin] (first compound 1 µM, partner dose 2 µM), 70.3%.
As to `O=c1[nH]nc(Sc2ncc([N+](=O)[O-])s2)n1-c1ccc2c(c1)OCCO2` + COc1ccc2c(c1)CCC1C2CCC2(C)C(NCCCCCCN3C(=O)C=CC3=O)CCC12 [U73122] (first compound 1 µM, partner dose 2 µM), the cell count is 71.2%.
Next, `C[C@@H]1CCN(C(=O)CC#N)C[C@@H]1N(C)c1ncnc2[nH]ccc12` + Oc1nc(-c2ccc(C(F)(F)F)cc2)nc2c1CSCC2 [XAV939] (first compound 5 µM, partner dose 10 µM): 71.3%.
